In all, about 400,000 compounds went through this assay and about 2,200 (0.55%) were called active. Not shown: some 1% with an inconclusive outcome. Calls follow the shape of the dose curve; as a rule, active = well fitted inhibition curve with a large enough effect; inconclusive = small, poorly fitted or top-dose-only effect, or another doubt; inactive = no such curve, though single readings can be large or run the other way. The entries are a selection whose mix differs from that of the whole data set. More than one record can exist for a structure, and the calls need not agree.
biological target: DNA polymerase kappa (Homo sapiens) (UniProt Q9UBT6); assay: qHTS for Inhibitors of Polymerase Kappa; settings: purified Pol kappa, fluorescent DNA synthesis assay, 10 min; activity, negative = inhibition: at the top concentration
UniProt Q9UBT6, sequence (Q9UBT6 whole entry, looked up): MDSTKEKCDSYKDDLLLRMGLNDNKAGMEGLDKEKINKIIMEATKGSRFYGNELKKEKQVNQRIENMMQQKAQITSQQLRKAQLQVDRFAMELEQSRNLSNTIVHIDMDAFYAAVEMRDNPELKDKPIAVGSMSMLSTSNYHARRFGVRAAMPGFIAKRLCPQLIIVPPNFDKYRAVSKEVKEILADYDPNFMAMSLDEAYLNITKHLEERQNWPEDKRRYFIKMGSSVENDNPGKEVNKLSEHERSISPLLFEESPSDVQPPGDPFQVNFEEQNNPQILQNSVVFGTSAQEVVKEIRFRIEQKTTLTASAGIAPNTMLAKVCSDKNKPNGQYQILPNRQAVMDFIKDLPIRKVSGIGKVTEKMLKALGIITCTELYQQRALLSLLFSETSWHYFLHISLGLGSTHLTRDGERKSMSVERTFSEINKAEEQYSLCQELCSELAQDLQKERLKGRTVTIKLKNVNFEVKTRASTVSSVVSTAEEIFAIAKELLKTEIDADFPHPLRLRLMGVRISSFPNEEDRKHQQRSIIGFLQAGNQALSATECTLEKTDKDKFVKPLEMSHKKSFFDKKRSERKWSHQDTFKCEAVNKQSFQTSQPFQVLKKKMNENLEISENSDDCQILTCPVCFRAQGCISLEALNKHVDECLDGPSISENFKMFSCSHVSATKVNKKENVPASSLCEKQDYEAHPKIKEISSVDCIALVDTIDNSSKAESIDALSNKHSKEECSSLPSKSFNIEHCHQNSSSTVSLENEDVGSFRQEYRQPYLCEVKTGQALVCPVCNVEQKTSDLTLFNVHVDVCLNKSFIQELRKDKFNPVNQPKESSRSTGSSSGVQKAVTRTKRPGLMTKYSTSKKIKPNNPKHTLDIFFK
Method in brief: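 Fluorescent qHTS in 1536-well format: enzyme (10 nM) and compound sat 15 min at room temperature before 50 nM substrate (final) was added. Signal taken at 0 and 10 min; no-enzyme buffer wells were negative controls.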
% is scaled to controls: 0 for no effect and ±100 for the full control effect; potency is read from the fitted curve at half-maximal effect.

Row | SMILES | Potency | activity, negative = inhibition
1 | CCC1C(C)=NN=C(c2ccc(OC)c(OC)c2)c2cc(OC)c(OC)cc21 (stereo not drawn) | inactive | 
2 | Nc1nc(N)c2nc(CNc3ccc(C(=O)NC(CCC(=O)O)C(=O)O)cc3)cnc2n1 (stereo not drawn) |  | inactive: -2.61%
3 | CNC(C)Cc1ccc(OC)cc1 (stereo not drawn) |  | inactive: 17.5%
4 | N#Cc1c(/N=C/c2c(O)n(Cc3ccco3)c(=O)[nH]c2=O)sc2c1CCCC2 | active: 22.4 µM | 
5 | CCN(CC)C(=O)N[C@@H]1C[C@@H]2c3cccc4[nH]cc(c34)C[C@H]2N(C)C1 |  | inactive: -4.45% [at 19.4 µM]
6 | c1cc(Cc2cnc[nH]2)ccn1 |  | inactive: 15.4%
7 | CCOC(=O)C1=C(C)c2ccccc2OC1(C(=O)OCC)c1ccccc1 (stereo not drawn) |  | inactive: -14.6% [at 107 µM]
8 | CC(=O)N1CCN(c2ccc(OC[C@H]3CO[C@](Cn4ccnc4)(c4ccc(Cl)cc4Cl)O3)cc2)CC1 | inactive | 
9 | C=CCN(C1=NCCN1)c1c(Cl)cccc1Cl | inactive | 
10 | CC(C)C[C@H]1C(=O)N2CCC[C@@H]2[C@@]2(O)O[C@](NC(=O)[C@@H]3C=C4c5cccc6[nH]cc(c56)C[C@@H]4N(C)C3)(C(C)C)C(=O)N12 |  | inactive: -18.3% [at 12 µM]
11 | C[C@H](CCC(=O)O)[C@H]1CC[C@H]2[C@H]3C(CC[C@]12C)[C@@]1(C)CC[C@@H](O)C[C@H]1C[C@H]3O (stereo partly drawn) | inactive | 
12 | NNc1ccccc1 | inactive | 
13 | O=C(O)c1cc(Oc2ccc(C(F)(F)F)cc2Cl)ccc1[N+](=O)[O-] |  | inactive: 9.31% [at 107 µM]
14 | CC(CO)NC(=O)C1C=C2c3cccc4[nH]cc(c34)C[C@H]2N(C)C1 (stereo partly drawn) |  | inactive: -1.37%
15 | CC(=O)N1CCN(c2ccc(OCC3CO[C@@](Cn4ccnc4)(c4ccc(Cl)cc4Cl)O3)cc2)CC1 (stereo partly drawn) |  | inactive: -4.06%
16 | O=c1ccc2c(O)c3ccoc3cc2o1 |  | inactive: -0.475% [at 107 µM]
17 | CC(C)C[C@H](NC(=O)[C@@H](N)Cc1ccccc1)C(=O)N[C@@H](Cc1ccccc1)C(=O)N[C@@H](CCC(N)=O)C(=O)N1CCC[C@H]1C(=O)N[C@@H](CCC(N)=O)C(=O)N[C@@H](CCCN=C(N)N)C(=O)N[C@@H](Cc1ccccc1)C(N)=O |  | inactive: 15.7%
18 | C[C@H](CCC(=O)O)[C@H]1CC[C@@H]2[C@H]3[C@@H](CC[C@@]21C)[C@]1(C)CC[C@H](O)C[C@@H]1C[C@@H]3O |  | inactive: -5.62% [at 12 µM]
19 | CC[C@H](C)[C@H](NC(=O)[C@H](CCCN=C(N)N)NC(=O)[C@H](CCCN=C(N)N)NC(=O)[C@H](CC(C)C)NC(=O)[C@H](Cc1ccccc1)NC(=O)CNC(=O)CNC(=O)[C@@H](N)Cc1ccc(O)cc1)C(=O)N[C@@H](CCCN=C(N)N)C(=O)N1CCC[C@H]1C(=O)N[C@@H](CCCCN)C(=O)N[C@@H](CC(C)C)C(=O)N[C@@H](CCCCN)C(=O)O | inactive | 
20 | C/C=C1\C[C@H](C)[C@@](O)(CO)C(=O)OCC2=CCN3CC[C@@H](OC1=O)[C@@H]23 |  | inactive: 1.66% [at 12 µM]
21 | O=[N+]([O-])c1cc([As](=O)(O)O)ccc1O | inactive | 

Row | SMILES | Potency | activity, negative = inhibition
22 | CCN1C[C@@]2(OC(=O)c3ccccc3NC(C)=O)CCC(OC)[C@@]34C5CC6C(OC)C[C@@](O)(C(CC23)[C@@H]14)C5(O)C6OC (stereo partly drawn) |  | inactive: -5.67%
23 | COc1cccc(N2C(=O)NC(=O)/C(=C/c3ccc([N+](=O)[O-])s3)C2=O)c1 | active: 31.6 µM | 
24 | c1nc[n]([Sn]([CH]2CCCCC2)([CH]2CCCCC2)[CH]2CCCCC2)n1 |  | inactive: 13.4%
25 | C[C@H](CCC(=O)O)[C@H]1CC[C@H]2[C@@H]3[C@H](O)C[C@@H]4C[C@H](O)CC[C@]4(C)[C@H]3CC[C@]12C |  | inactive: 7.87% [at 107 µM]
26 | O=C(CO)[C@@H](O)C(O)[C@@H](O)CO (stereo partly drawn) |  | inactive: 14.3%
27 | CN1C(=O)NC(=O)/C(=C/c2ccc([N+](=O)[O-])o2)C1=O | active: 22.4 µM | 
28 | C[C@]12CC[C@@H]3c4ccc(OC(=O)N(CCCl)CCCl)cc4CC[C@H]3[C@@H]1CC[C@@H]2O | active: 8.91 µM | 
29 | CCCN1CCc2cccc3c2[C@H]1Cc1ccc(O)c(O)c1-3 |  | inactive: 1.61% [at 107 µM]
30 | O=C1NC(=S)N(c2ccccc2)C(=O)/C1=C/c1ccco1 | active: 2.51 µM | 
31 | COc1ccc2c3c([nH]c2c1)C(C)=NCC3 | inactive | 
32 | CC(C)(C)NCC(O)c1cc(Cl)c(N)c(Cl)c1 (stereo not drawn) | inactive | 
33 | Fc1ccc(C(OCCN2CCN(CCCc3ccccc3)CC2)c2ccc(F)cc2)cc1 | inactive | 
34 | CCCC[C@H]1C(=O)O[C@H](C)[C@H](NC(=O)c2cccc(NC=O)c2OC)C(=O)O[C@@H](C)[C@@H]1OC(=O)CC(C)C | inactive | 
35 | CC(C)C[C@H]1C(=O)N2CCCC2[C@]2(O)O[C@](NC(=O)[C@@H]3C=C4c5cccc6[nH]c(Br)c(c56)C[C@H]4N(C)C3)(C(C)C)C(=O)N12 (stereo partly drawn) |  | inactive: -6.77% [at 19.4 µM]
36 | CC(COc1ccccc1)N(CCCl)Cc1ccccc1 (stereo not drawn) | inactive | 
37 | N#CC1=C(N)Oc2c(c(=O)oc3ccccc23)C1c1ccc([N+](=O)[O-])o1 (stereo not drawn) | active: 50.1 µM | 
38 | CNCCc1c[nH]c2ccc(O)cc12 | inactive | 
39 | CN1/C(=C\C=C2C(=O)NC(=S)NC2=O)C(C)(C)c2ccccc21 |  | inactive: 52% [at 107 µM]
40 | CC1(C)C(C=C(Cl)Cl)C1C(=O)OC(C#N)c1cccc(Oc2ccccc2)c1 (stereo not drawn) |  | inactive: 1.43% [at 19.4 µM]
41 | COc1ccc(OC)c(N2C(=O)/C(=C/c3ccco3)C(=O)NC2=S)c1 | active: 3.55 µM | 
42 | C[C@]12N[C@H](Cc3ccccc31)c1ccccc12 | inactive | 

Row | SMILES | Potency | activity, negative = inhibition
43 | C/C=C1/C[C@@H](C)[C@](O)(CO)C(=O)OCC2=CCN3CC[C@@H](OC1=O)C23 (stereo partly drawn) | inactive | 
44 | CN(N=O)c1cc(O)ccc1O |  | inactive: -2.39% [at 107 µM]
45 | Oc1ccc2c3c1OC1c4oc5ccccc5c4C[C@@]4(O)[C@@H](C2)N(CC2CC2)CC[C@]314 (stereo partly drawn) |  | inactive: -6.9% [at 107 µM]
46 | O=C(O)CC1OCC=C2CN3CCC45C6=CC(=O)C(=O)C([N+](=O)[O-])=C6NC4C1C2CC35 (stereo not drawn) | active: 39.8 µM | 
47 | COP(=S)(OC)Oc1ccc([N+](=O)[O-])c(C)c1 |  | inactive: 13.8%
48 | CC(C)C1C(=O)N2CCC[C@H]2[C@]2(O)O[C@](NC(=O)[C@@H]3C=C4c5cccc6[nH]cc(c56)C[C@H]4N(C)C3)(C(C)C)C(=O)N12 (stereo partly drawn) |  | inactive: -8.56% [at 19.4 µM]
49 | CCCC[C@@H](C)[C@@H](OC(=O)C[C@@H](CC(=O)O)C(=O)O)[C@H](C[C@@H](C)C[C@H](O)CCCC[C@@H](O)C[C@H](O)[C@H](C)N)OC(=O)C[C@H](CC(=O)O)C(=O)O |  | inactive: 5.05% [at 19.4 µM]
50 | C[C@]12C=CC(=O)C=C1CC[C@@H]1C2=CC[C@]2(C)[C@@H](C(=O)CN3CCN(c4cc(N5CCCC5)nc(N5CCCC5)n4)CC3)CC[C@@H]12 |  | inactive: -16.6% [at 107 µM]
51 | CN1[C@@H]2CC[C@H]1CC(OC1c3ccccc3CCc3ccccc31)C2 (stereo partly drawn) | inactive | 
52 | Cc1cc(C=C2C(=O)NC(=S)NC2=O)c(C)n1-c1ccc2c(c1)OCO2 | active: 79.4 µM | 
53 | OCC(Br)(Br)Br |  | inactive: 21.1%
54 | C=C1C(=O)O[C@@H]2C[C@@H](C)[C@@H]3C=CC(=O)[C@@]3(C)[C@@H](OC(=O)CC(=O)O[C@H]3[C@@H]4C(=C)C(=O)O[C@@H]4C[C@@H](C)[C@@H]4C=CC(=O)[C@]43C)[C@H]12 | active: 35.5 µM | 
55 | CC(C)=CCCC1(C)C=Cc2c(O)c3c(c(CC=C(C)C)c2O1)OC12C(=CC4CC1C(C)(C)OC2(C/C=C(/C)C(=O)O)C4O)C3=O (stereo not drawn) | active: 25.1 µM | 
56 | O=C1NC(=S)NC(=O)C1=Cc1cccn1-c1ccc(O)cc1 | active: 17.8 µM | 
57 | C[C@H](N)C(=O)NCC(=O)N[C@H]1CSSC[C@@H](C(=O)O)NC(=O)[C@H](CO)NC(=O)[C@H]([C@@H](C)O)NC(=O)[C@H](Cc2ccccc2)NC(=O)[C@H]([C@@H](C)O)NC(=O)[C@H](CCCCN)NC(=O)[C@H](Cc2c[nH]c3ccccc23)NC(=O)[C@H](Cc2ccccc2)NC(=O)[C@H](Cc2ccccc2)NC(=O)[C@H](CC(N)=O)NC(=O)[C@H](CCCCN)NC1=O |  | inactive: 5.21%
58 | C[C@@]12N[C@@H](Cc3ccccc31)c1ccccc12 | inactive | 
59 | COc1ccc(OC)c(N2C(=O)NC(=O)/C(=C\c3ccc([N+](=O)[O-])s3)C2=O)c1 | active: 35.5 µM | 
60 | Oc1c(Cl)c(Cl)c(Cl)c(Cl)c1Cl |  | inactive: 0% [at 107 µM]
61 | CN(C)C1C(=O)C(C(N)=O)=C(O)C2(O)C(=O)C3=C(O)c4c(O)cccc4C(C)(O)C3C(O)C12 (stereo not drawn) |  | inactive: -3.64% [at 107 µM]
62 | CC[C@@]1(O)C(=O)OCc2c1cc1n(c2=O)Cc2cc3cc(O)ccc3nc2-1 |  | inactive: -11.4%
63 | CCCCOC(=O)N(C)SN(C)C(=O)Oc1cccc2c1OC(C)(C)C2 |  | inactive: 13.6%

Row | SMILES | Potency | activity, negative = inhibition
64 | CN=C(NC#N)NCCSCc1nc[nH]c1C | active: 28.2 µM | 
65 | Oc1ccc2c3c1O[C@H]1[C@@H](O)CC[C@]4(O)[C@H](C2)N(CC2CCC2)CC[C@@]314 |  | inactive: -4.46% [at 12 µM]
66 | CNCC(=O)c1ccccc1 |  | inactive: 23.7% [at 107 µM]
67 | Cc1ccc(N2C(=O)NC(=O)/C(=C/c3ccoc3)C2=O)cc1 | active: 22.4 µM | 
68 | C=C(C)[C@@H]1CC[C@]2(C(=O)O)CC[C@]3(C)[C@H](CC[C@@H]4[C@@]5(C)CC[C@H](O)C(C)(C)[C@@H]5CC[C@]43C)[C@@H]12 |  | inactive: 10.6% [at 107 µM]
69 | Nc1ccc(N)cc1 |  | inactive: -5.82%
70 | O=C(O)c1cccc2c1NC(C(=O)O)C1CC(Sc3ccccc3[N+](=O)[O-])C(Cl)C21 (stereo not drawn) | active: 8.91 µM | 
71 | Cc1cccc(NC(=O)C2CCCN(S(=O)(=O)c3ccc4c(c3)oc(=O)n4C)C2)c1 (stereo not drawn) |  | inactive: -12.4%
72 | O=C(Nc1cc(C(F)(F)F)cc(C(F)(F)F)c1)c1cc(Cl)ccc1O |  | inactive: -7.03%
73 | CN(C)C1C(=O)C(C(N)=O)=C(O)[C@@]2(O)C(=O)C3=C(O)c4c(O)cccc4[C@](C)(O)C3C(O)C12 (stereo partly drawn) | active: 2.82 µM | 
74 | C=C1CCC(O)C/C1=C/C=C1\CCC[C@]2(C)[C@@H]([C@H](C)CCCC(C)C)CC[C@@H]12 (stereo partly drawn) |  | inactive: 5.39%
75 | Cc1[nH]ccc2c1[nH]c1cc(=O)ccc12 | inactive | 
76 | CSCC[C@H](NC(=O)[C@@H](NC(=O)CNC(=O)[C@H](CC(=O)O)NC(=O)[C@H](CCSC)NC(=O)[C@@H](N)Cc1ccc(O)cc1)[C@@H](C)O)C(=O)N[C@@H](CO)C(=O)N[C@@H](CCC(N)=O)C(=O)N[C@H](C(=O)O)C(C)C |  | inactive: 14%
77 | CCCOC(=O)c1ccccc1 | inactive | 
78 | CSC(=S)NCc1c[nH]c2ccccc12 |  | inactive: 8.52%
79 | C=C1CC[C@H](O)C/C1=C/C=C1\CCC[C@]2(C)[C@@H]([C@H](C)CCCC(C)C)CC[C@@H]12 |  | inactive: -5.32% [at 19.4 µM]
80 | CC12CCC(=O)C=C1CCC1C2CCC2(C)C(O)CCC12 (stereo not drawn) |  | inactive: -6.43% [at 107 µM]
81 | CCCCC/C=C\C/C=C\C/C=C\C/C=C\CCCC(=O)NCCO |  | inactive: 5.3% [at 19.4 µM]
82 | Oc1ccc2c3c1O[C@H]1c4oc5ccccc5c4C[C@@]4(O)[C@@H](C2)N(CC2CC2)CC[C@]314 |  | inactive: -18% [at 107 µM]
83 | C=CCN1CC[C@]23c4c5ccc(O)c4OC2C(O)CC[C@@]3(O)[C@H]1C5 (stereo partly drawn) |  | inactive: 14.8% [at 107 µM]

— PubChem BioAssay AID588579 (National Center for Advancing Translational Sciences (NCATS), 2011)
